The text below walks through data of the antibiotic and cytotoxicity screens of Wong et al. (2023).

One test relates to HSkMC. Briefly: cytotoxicity call (relative viability < 0.9). The settings on record: 10 µM.
Another test relates to HepG2. Briefly: cytotoxicity call (relative viability < 0.9). Particulars: 10 µM.
The test system of the next test is S. aureus RN4220. As to the kind of experiment: growth inhibition call (relative growth <= 0.2). Particulars: 50 µM.

The list shows a part of the results.

Consider `C[C@H]1CN([C@@H](C)CO)C(=O)c2cc(NS(=O)(=O)c3ccc(Cl)cc3)ccc2O[C@H]1CN(C)C(=O)Nc1cccc2ccccc12`, for which the cytotoxicity call in the test with HSkMC and with HepG2 was “inactive” each time. Also, the growth inhibition call with S. aureus RN4220 is “inactive”.

`C[C@H]1CN([C@@H](C)CO)C(=O)c2cccc(NC(=O)c3nc4ccccc4s3)c2O[C@H]1CN(C)C(=O)Nc1cccc2ccccc12`: the cytotoxicity call in the test with HSkMC and with HepG2 was “inactive” each time. For the same molecule, the growth inhibition call with S. aureus RN4220 was “inactive”.

With `COc1ccc(NC(=O)Nc2ccc3c(c2)C(=O)N([C@H](C)CO)C[C@@H](C)[C@H](CN(C)C(=O)NC2CCCCC2)OCCCC[C@@H](C)O3)cc1`, the cytotoxicity call in the test on HSkMC and in the test on HepG2 was “inactive” throughout. The growth inhibition call in the test with S. aureus RN4220 was “inactive”.

In the case of `C[C@@H]1CCCCO[C@H](CN(C)C(=O)Nc2ccc3c(c2)OCO3)[C@H](C)CN([C@@H](C)CO)C(=O)c2cc(NC(=O)CCC(F)(F)F)ccc2O1`, the cytotoxicity call in the test on HSkMC and in the test with HepG2 was “inactive” throughout. For the same molecule, the growth inhibition call with S. aureus RN4220 was “inactive”.

Regarding `c1ccc2n[nH]nc2c1`, the cytotoxicity call with HSkMC and in the test with HepG2 was “inactive” in each case. In the test with S. aureus RN4220, the growth inhibition call is “inactive”.

Turning to `COc1ccc(S(=O)(=O)N(C)C[C@H]2Oc3ccc(NC(=O)Cn4cnnn4)cc3CC(=O)N([C@H](C)CO)C[C@H]2C)cc1`, the cytotoxicity call in the test on HSkMC and with HepG2 was “inactive” in each case. In addition, the growth inhibition call in the test on S. aureus RN4220 was “inactive”.

Take `C[C@@H]1CCCCO[C@H](CN(C)C(=O)CCC(F)(F)F)[C@@H](C)CN([C@H](C)CO)C(=O)c2cc(NC(=O)C3CCCCC3)ccc2O1`: the cytotoxicity call with HSkMC and in the test with HepG2 was “inactive” in each case. Also, the growth inhibition call in the test on S. aureus RN4220 was “inactive”.

For `CO[C@H](CN(C)S(=O)(=O)c1ccc(F)cc1)[C@@H](C)CN([C@@H](C)CO)S(=O)(=O)c1cccc(Cl)c1`, the cytotoxicity call in the test on HSkMC and with HepG2 was “inactive” throughout. Moreover, in the test on S. aureus RN4220, the growth inhibition call is “inactive”.

With `Cc1noc(C)c1NC(=O)Nc1ccc2c(c1)C(=O)N([C@H](C)CO)C[C@H](C)[C@H](CN(C)C(=O)Cc1ccccc1)OCCCC[C@@H](C)O2`, the cytotoxicity call in the test on HSkMC and with HepG2 was “inactive” in each case. In addition, the growth inhibition call in the test with S. aureus RN4220 was “inactive”.

`COc1ccc2c3c([nH]c2c1)[C@H](CO)N(C[C@]13CN(CC2CCCCC2)C1)S(=O)(=O)c1cn(cn1)C`: the cytotoxicity call in the test with HSkMC and with HepG2 was “inactive” in each case. Moreover, the growth inhibition call in the test on S. aureus RN4220 was “inactive”.

Turning to `C[C@H](CO)N1C[C@H](C)[C@H](CN(C)C(=O)Nc2cccc3ccccc23)OCCCC[C@H](C)Oc2ccc(NC(=O)Nc3ccc(C(F)(F)F)cc3)cc2C1=O`, the cytotoxicity call in the test with HSkMC and with HepG2 was “inactive” each time. Further, the growth inhibition call in the test with S. aureus RN4220 is “inactive”.

On to `COCCNC(=O)C[C@@H]1CC[C@@H]2[C@H](COC[C@@H](O)CN2C(=O)Nc2ccccc2OC)O1`, for which the cytotoxicity call in the test with HSkMC and in the test on HepG2 was “inactive” each time. Besides, the growth inhibition call with S. aureus RN4220 is “inactive”.

Consider `C[C@@H]1CCCCO[C@@H](CN(C)CC2CCCCC2)[C@@H](C)CN([C@H](C)CO)C(=O)c2cc(NS(=O)(=O)c3ccccc3)ccc2O1`, for which the cytotoxicity call with HSkMC and in the test with HepG2 was “inactive” throughout. Besides, the growth inhibition call in the test on S. aureus RN4220 was “inactive”.

Consider `C[C@@H]1CN([C@H](C)CO)C(=O)c2cc(NC(=O)Nc3ccc4c(c3)OCO4)ccc2O[C@@H](C)CCCCO[C@@H]1CN(C)CC1CCCCC1`, for which the cytotoxicity call in the test with HSkMC and with HepG2 was “inactive” throughout. The growth inhibition call with S. aureus RN4220 was “inactive”.

With `NCCCCCCNC(=O)[C@@H]1C[C@@H]2C(=O)N[C@@H](CCCCN)C(=O)N2[C@@H]1c1cccc(OCCO)c1`, the cytotoxicity call with HSkMC and in the test with HepG2 was “inactive” throughout. In addition, the growth inhibition call in the test with S. aureus RN4220 was “inactive”.

As for `C[C@@H]1CCCCO[C@H](CN(C)C(=O)Nc2ccc(C(F)(F)F)cc2)[C@@H](C)CN([C@H](C)CO)C(=O)c2cc(NS(=O)(=O)c3cn(C)cn3)ccc2O1`, the cytotoxicity call in the test on HSkMC and with HepG2 was “inactive” throughout. Besides, the growth inhibition call in the test on S. aureus RN4220 was “inactive”.

As for `CN(C)CCCNC(=O)C[C@H]1C=C[C@H](NS(=O)(=O)c2ccccc2)[C@@H](CO)O1`, the cytotoxicity call in the test on HSkMC and in the test on HepG2 was “inactive” in each case. For the same molecule, the growth inhibition call with S. aureus RN4220 is “inactive”.

For the molecule `C[C@H](CO)N1C[C@H](C)[C@H](CN(C)Cc2ccc(C(=O)O)cc2)OCCCC[C@H](C)Oc2ccc(NS(=O)(=O)c3cccs3)cc2C1=O`, the cytotoxicity call in the test on HSkMC and in the test on HepG2 was “inactive” in each case. In addition, the growth inhibition call in the test with S. aureus RN4220 was “inactive”.

`C[C@@H]1CN([C@@H](C)CO)C(=O)Cc2cc(NC(=O)Nc3cccc4ccccc34)ccc2O[C@@H]1CN(C)Cc1ccc(Cl)c(Cl)c1`: the cytotoxicity call in the test on HSkMC was “inactive”. Besides, the cytotoxicity call in the test on HepG2 is “active”. Moreover, the growth inhibition call in the test on S. aureus RN4220 is “inactive”.

For `COc1ccc(NC(=O)Nc2ccc3c(c2)C(=O)N([C@@H](C)CO)C[C@@H](C)[C@H](CN(C)C(=O)Nc2c(C)noc2C)OCCCC[C@H](C)O3)cc1`, the cytotoxicity call with HSkMC and in the test on HepG2 was “inactive” throughout. In the test with S. aureus RN4220, the growth inhibition call was “inactive”.

`Cc1ccc(OC(=O)N(C)C[C@@H]2OCc3ccccc3-c3ccccc3C(=O)N([C@@H](C)CO)C[C@H]2C)cc1`: the cytotoxicity call in the test on HSkMC and in the test on HepG2 was “inactive” each time. Moreover, in the test with S. aureus RN4220, the growth inhibition call is “inactive”.

`O=C(O[C@@H]1Cc2c(O)cc(O)cc2O[C@@H]1c1cc(O)c(O)c(O)c1-c1c([C@H]2Oc3cc(O)cc(O)c3C[C@H]2O)cc(O)c(O)c1O)c1cc(O)c(O)c(O)c1`: the cytotoxicity call with HSkMC and in the test on HepG2 was “inactive” throughout. In the test on S. aureus RN4220, the growth inhibition call was “inactive”.

As to `C[C@@H]1CN([C@H](C)CO)C(=O)c2c(c3ccccc3n2C)-c2ccccc2CO[C@H]1CN(C)Cc1ccc(C(F)(F)F)cc1`, the cytotoxicity call in the test with HSkMC and in the test with HepG2 was “active” each time. In addition, the growth inhibition call with S. aureus RN4220 was “inactive”.

`C[C@@H]1CCCCO[C@H](CN(C)Cc2ccccc2)[C@H](C)CN([C@H](C)CO)C(=O)c2cc(NC(=O)CCC(F)(F)F)ccc2O1`: the cytotoxicity call in the test with HSkMC and in the test on HepG2 was “inactive” in each case. Also, in the test on S. aureus RN4220, the growth inhibition call was “inactive”.

Turning to `N[C@@H](Cc1cc(I)c(Oc2ccc(O)c(I)c2)c(I)c1)C(=O)O`, the cytotoxicity call in the test on HSkMC (human skeletal muscle cells) and with HepG2 was “inactive” in each case. In addition, the growth inhibition call with S. aureus RN4220 was “inactive”.

For the molecule `C[C@H]1CN([C@@H](C)CO)C(=O)Cc2cc(NS(=O)(=O)c3cccs3)ccc2O[C@@H]1CN(C)Cc1ccc(-c2ccccc2)cc1`, the cytotoxicity call in the test with HSkMC and with HepG2 was “inactive” in each case. The growth inhibition call in the test with S. aureus RN4220 was “inactive”.

Turning to `CC(=O)NCCc1cnc[nH]1`, the cytotoxicity call in the test with HSkMC and in the test on HepG2 was “inactive” throughout. Also, the growth inhibition call in the test on S. aureus RN4220 is “inactive”.
